# Measurements published in PubChem BioAssay AID1508642 (National Center for Advancing Translational Sciences (NCATS), 2021).
# Screen size: about 43,000 compounds; about 200 (0.47%) were called active. Inconclusive means that the source gave no clear call. Such entries were picked first, then a sample of the others. Calls follow the shape of the dose curve; as a rule, active = well fitted cell-killing curve with a large enough effect; inconclusive = small, poorly fitted or top-dose-only effect, or effect the other way; inactive = flat fitted curve, though single readings scatter. Potencies of inconclusive entries are doubtful fits and often do not repeat.
# Experiment: Cell viability qHTS assay in S16 Pmp22-F2sN cells; also: nearly all actives have a fitted effect of over 65% in size
# Details: S16 Pmp22-F2sN Schwann cells viability, CellTiter-Glo, 24 h; series mostly up to 57.5 µM
# Summary of the method: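 Viability was measured by CellTiter-Glo luminescence (15 min, room temperature). This followed 24 h at 37 °C of compound exposure (23 nL pin transfer) in S16 Pmp22-F2sN Schwann cells, 500-1,000 per well.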
# Potency is read from the fitted curve at half-maximal effect; tags tell the direction and shape of the fitted curve.
row,SMILES,Potency
1,COc1ccc(-c2nc3ccccc3n2Cc2ccc(C(C)C)cc2)cc1,"inconclusive: 39.8 µM [cytotoxic, partial curve, poor fit]"
2,O=C(Nc1cccc(Br)c1)Nc1nc2c(s1)CCCCCC2,"inconclusive: 39.8 µM [cytotoxic, single point]"
3,COc1cc2c(C(=O)N3CCN(c4cccc(Cl)c4)CC3)cn(C)c(=O)c2cc1OC,"inconclusive: 39.8 µM [cytotoxic, single point]"
4,O=C(Nc1cc(Cl)cc(Cl)c1)c1ccc(F)c(S(=O)(=O)N2CCCC2)c1,"inconclusive: 39.8 µM [cytotoxic, single point]"
5,COc1ccccc1-c1cc(C(F)(F)F)nc(S(=O)(=O)CCCC(=O)Nc2ccccc2F)n1,"inconclusive: 39.8 µM [cytotoxic, single point]"
6,COc1ccc(Cn2c(SCc3ccc(C(=O)NC4CCCCC4)cc3)nc3cccnc32)cc1,"inconclusive: 25.1 µM [cytotoxic, partial curve, poor fit]"
7,COc1ccc(Nc2ncnc3scc(-c4ccc(F)cc4)c23)cc1,"inconclusive: 3.98 µM [cytotoxic, full curve, poor fit]"
8,COc1cccc(C(=O)Nc2nc3c(s2)CCCC3)c1,inactive
9,CCOc1cc(CNCCSc2nnnn2C)ccc1OCc1ccc(Cl)cc1Cl,"inconclusive: 39.8 µM [cytotoxic, single point]"
10,CCCN(CCC)CCNC(=O)CS(=O)Cc1nc(-c2ccc(OC)c(OC)c2)oc1C (stereo not given),inactive
11,Cc1ccc2sc(N(CCCN(C)C)C(=O)c3ccco3)nc2c1C,"inconclusive: 39.8 µM [cytotoxic, single point]"
12,Cc1ccc(-n2ncc(C(=O)NCCc3ccsc3)c2C2CCN(C(=O)OC(C)(C)C)CC2)c(C)c1,"inconclusive: 39.8 µM [cytotoxic, single point]"
13,COc1ccccc1C(=O)c1c(N)c(-c2nc(-c3ccccc3)cs2)c2ccccn12,"inconclusive: 39.8 µM [cytotoxic, partial curve, poor fit]"
14,Cc1ccc(CN2CCCn3nc(C(=O)NCc4ccccc4Cl)cc3C2=O)cc1,"inconclusive: 15.8 µM [cytotoxic, partial curve]"
15,CSc1ncc(Cl)c(C(=O)Nc2nc3ccc(F)cc3s2)n1,"inconclusive: 8.91 µM [rising, full curve, poor fit]"
16,CCCCN(C)CC(O)Cn1cc(/C=C/C(=O)c2ccc(OC)c(OC)c2)c2ccccc21 (stereo not given),inactive
17,Fc1cccc(Cl)c1CNc1n[nH]c(-c2ccco2)n1,inactive
18,COc1ccc(NC(=O)Cc2csc(COc3cccc(C)c3)n2)cc1OC,"inconclusive: 39.8 µM [cytotoxic, single point]"
19,Cc1cc(NC(=O)c2ccc(-c3ccc(Br)cc3)o2)cc(-c2nc3ncccc3o2)c1O,"inconclusive: 0.501 µM [rising, full curve, poor fit]"
20,CN1C(=O)c2ccccc2Sc2ccc(NC(=O)Cc3c(F)cccc3Cl)cc21,"inconclusive: 25.1 µM [cytotoxic, single point]"

row,SMILES,Potency
1,CCN(c1ccc(OC)cc1)S(=O)(=O)c1nnc(NC(=O)COc2ccc(F)cc2)s1,"inconclusive: 39.8 µM [cytotoxic, single point]"
2,C#CCn1c(/C=C/c2ccc(Cl)cc2)nc2ccccc21,"inconclusive: 28.2 µM [cytotoxic, single point]"
3,Cc1ccc(N2CCn3c2nc2c3c(=O)n(CCCc3ccccc3)c(=O)n2C)cc1,inactive
4,CCN1CCOC(=O)C1CC(=O)Nc1cccc(OC)c1 (stereo not given),"inconclusive: 25.1 µM [cytotoxic, single point]"
5,Clc1cccc(N2CCN(c3ncnc4c3nc3n4CCCC3)CC2)c1,"inconclusive: 39.8 µM [cytotoxic, partial curve, poor fit]"
6,COc1ccccc1-c1nn2c(=O)cc(CN3CCN(S(=O)(=O)c4ccc(C)cc4)CC3)nc2s1,"inconclusive: 25.1 µM [rising, partial curve, poor fit]"
7,CCOc1ccc(CCNC(=O)CCCc2nnc3n(CC)c(=O)c4sccc4n23)cc1OCC,"inconclusive: 11.2 µM [rising, partial curve]"
8,COc1ccc(CNC(=O)Nc2ccc3c(c2)N(C)C(=O)c2ccccc2S3)cc1OC,"inconclusive: 25.1 µM [cytotoxic, single point]"
9,Cc1ccc(CNC(=O)c2c[nH]n3c(=O)c(Cc4ccc(Cl)cc4)c(C)nc23)cc1,inactive
10,COc1ccc(NC(=O)CSc2nnc(NC(=O)NC3CCCCC3)s2)cc1OC,inactive
11,COc1cc2ncc(C(=O)c3ccc(C)cc3)c(N3CCCCC3)c2cc1OC,"inconclusive: 2.51 µM [rising, partial curve, poor fit]"
12,COc1ccc(CNCCC(c2ccc3c(c2)OCO3)c2ccccc2OC)cc1 (stereo not given),"inconclusive: 39.8 µM [cytotoxic, single point]"
13,CCn1c(=N)n(CCOc2ccc(Br)cc2)c2ccccc21,"inconclusive: 35.5 µM [cytotoxic, single point]"
14,COc1ccc(-c2noc(-c3cccnc3N3CCN(c4ccc(OC)cc4)CC3)n2)cc1,inactive
15,O=C(Nc1cccc(Cl)c1)c1ccc2c(c1)CCN2S(=O)(=O)c1ccccc1,"inconclusive: 25.1 µM [cytotoxic, single point]"
16,CCc1ccccc1Nc1nn2c(=O)c3ccc(C(=O)NCCCOC(C)C)cc3nc2s1,"inconclusive: 22.4 µM [cytotoxic, single point]"
17,CCOC(=O)c1c(C)[nH]c(C)c1S(=O)(=O)N1CCCC(C(=O)NCc2ccc(Cl)cc2)C1 (stereo not given),"inconclusive: 39.8 µM [cytotoxic, single point]"
18,CCn1c(CN2CCC(C)CC2)nc2cc(NC(=O)COc3ccc(Cl)c(C)c3)ccc21,"inconclusive: 31.6 µM [cytotoxic, single point]"
19,CCc1ccc(-n2c(SCc3ccccc3Cl)nc3[nH]ncc3c2=O)cc1,"inconclusive: 39.8 µM [cytotoxic, single point]"
20,Cc1cccc(NC(=O)Cn2cc(C(=O)c3ccco3)c3ccccc32)c1,"inconclusive: 39.8 µM [cytotoxic, single point]"
